# Source: the supplement of paper PMC8728848
# Some of the results follow.
# B1: Surfactant Protein D (Human); Neck + Carbohydrate Recognition Domain (NCRD) (Homo sapiens) (protein)
# chain: MLLFLLSALVLLTQPLGYLEAEMKTYSHRTMPSACTLVMCSSVESGLPGRDRDGREGPRGEKGDPGLPGAAGQAGMPGQAGPVGPKGDNGSVGEPGPKGDTGPSGPPGPPGVPGPAGREGALGKQGNIGPQGKPGPKGEAGPKGEVGAPGMQGSAGARGLAGPKGERGVPGERGVPGNTGAAGSAGAMGPQGSPGARGPPGLKGDKGIPGDKGAKGESGLPDVASLRQQVEALQGQVQHLQAAFSQYKKVELFPNGQSVGEKIFKTAQFVKPFTEAQLLCTQAGGQLASPRSAAENAALQQLVVAKNEAAFLSMTDSKTEGKFTYPTGESLVYSNWAPGEPNDDGGSEDCVEIFTNGKWNDRACGEKRLVVCEA
# Columns and labels:
# Experiment in all cases: glycan array binding signal (z-score within array); higher = stronger binding
# Conditions in all cases: glycan notation: IUPAC condensed, linker removed; mutation: F355A
# Gal3S(b1-4)GlcNAc6S = biological target: Gal3S(b1-4)GlcNAc6S
# How it was run: (§1)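 Columns mapping to the same glycan were averaged after glycan names were converted to IUPAC-condensed notation. The data come from 3228 arrays in the Consortium for Functional Glycomics database, limited to those with an available protein sequence. Binding is reported as a within-array Z-score averaged across arrays of one protein sequence and across linkers.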
# [1] = biological target: Gal3S(b1-4)[Fuc(a1-3)]Glc
# How it was run: as §1
# Gal3S4S(b1-4)GlcNAc = biological target: Gal3S4S(b1-4)GlcNAc
# How it was run: as §1
# Gal3S6S(b1-4)GlcNAc = biological target: Gal3S6S(b1-4)GlcNAc
# How it was run: as §1
# Gal3S6S(b1-4)GlcNAc6S = biological target: Gal3S6S(b1-4)GlcNAc6S
# How it was run: as §1
# Gal4S(b1-4)GlcNAc = biological target: Gal4S(b1-4)GlcNAc
# How it was run: as §1
# Gal4S6S(b1-4)GlcNAc = biological target: Gal4S6S(b1-4)GlcNAc
# How it was run: as §1
# Gal6S(b1-4)Glc = biological target: Gal6S(b1-4)Glc
# How it was run: as §1
# Gal6S(b1-4)Glc6S = biological target: Gal6S(b1-4)Glc6S
# How it was run: as §1
# Gal6S(b1-4)GlcNAc = biological target: Gal6S(b1-4)GlcNAc
# How it was run: as §1
# Gal6S(b1-4)GlcNAc6S = biological target: Gal6S(b1-4)GlcNAc6S
# How it was run: as §1
# GalNAc(a1-3)Gal = biological target: GalNAc(a1-3)Gal
# How it was run: as §1
# GalNAc(a1-3)GalNAc = biological target: GalNAc(a1-3)GalNAc
# How it was run: as §1
# GalNAc(b1-3)Gal = biological target: GalNAc(b1-3)Gal
# How it was run: as §1
# [2] = biological target: GalNAc(b1-3)Gal(a1-4)Gal(b1-4)GlcNAc
# How it was run: as §1
# GalNAc(b1-3)GalNAc = biological target: GalNAc(b1-3)GalNAc
# How it was run: as §1
# GalNAc(b1-4)GlcNAc = biological target: GalNAc(b1-4)GlcNAc
# How it was run: as §1
# Glc(a1-4)Glc = biological target: Glc(a1-4)Glc
# How it was run: as §1
# Glc(a1-6)Glc(a1-6)Glc = biological target: Glc(a1-6)Glc(a1-6)Glc
# How it was run: as §1
# Glc(b1-4)Glc = biological target: Glc(b1-4)Glc
# How it was run: as §1
# Glc(b1-6)Glc = biological target: Glc(b1-6)Glc
# How it was run: as §1
# GlcA(b1-3)Gal = biological target: GlcA(b1-3)Gal
# How it was run: as §1
# GlcA(b1-3)GlcNAc = biological target: GlcA(b1-3)GlcNAc
# How it was run: as §1
# GlcA(b1-6)Gal = biological target: GlcA(b1-6)Gal
# How it was run: as §1
# [3] = biological target: GlcNAc(a1-3)Gal(b1-4)GlcNAc
# How it was run: as §1
# [4] = biological target: GlcNAc(a1-6)Gal(b1-4)GlcNAc
# How it was run: as §1
# [5] = biological target: GlcNAc(b1-2)Gal(b1-3)GalNAc
# How it was run: as §1
# [6] = biological target: GlcNAc(b1-2)Man(a1-3)[GlcNAc(b1-2)Man(a1-6)]Man(b1-4)GlcNAc(b1-4)GlcNAc
# How it was run: as §1
# GlcNAc(b1-3)Gal = biological target: GlcNAc(b1-3)Gal
# How it was run: as §1
# [7] = biological target: GlcNAc(b1-3)Gal(b1-3)GalNAc
# How it was run: as §1
# GlcNAc(b1-3)Gal(b1-4)Glc = biological target: GlcNAc(b1-3)Gal(b1-4)Glc
# How it was run: as §1
# [8] = biological target: GlcNAc(b1-3)Gal(b1-4)GlcNAc
# How it was run: as §1
# [9] = biological target: GlcNAc(b1-3)Gal(b1-4)GlcNAc(b1-3)Gal(b1-4)GlcNAc
# How it was run: as §1
# GlcNAc(b1-3)GalNAc = biological target: GlcNAc(b1-3)GalNAc
# How it was run: as §1
# GlcNAc(b1-3)Man = biological target: GlcNAc(b1-3)Man
# How it was run: as §1
# [10] = biological target: GlcNAc(b1-3)[GlcNAc(b1-4)][GlcNAc(b1-6)]GlcNAc
# How it was run: as §1
# [11] = biological target: GlcNAc(b1-3)[GlcNAc(b1-6)]Gal(b1-4)GlcNAc
# How it was run: as §1
binder,measurement,setting,value
B1,glycan array binding signal (z-score),Gal3S(b1-4)GlcNAc6S,-0.121
same,glycan array binding signal (z-score),[1],-0.143
same,glycan array binding signal (z-score),Gal3S4S(b1-4)GlcNAc,-0.108
same,glycan array binding signal (z-score),Gal3S6S(b1-4)GlcNAc,-0.123
same,glycan array binding signal (z-score),Gal3S6S(b1-4)GlcNAc6S,-0.155
same,glycan array binding signal (z-score),Gal4S(b1-4)GlcNAc,-0.12
same,glycan array binding signal (z-score),Gal4S6S(b1-4)GlcNAc,-0.139
same,glycan array binding signal (z-score),Gal6S(b1-4)Glc,-0.114
same,glycan array binding signal (z-score),Gal6S(b1-4)Glc6S,0.032
same,glycan array binding signal (z-score),Gal6S(b1-4)GlcNAc,-0.137
same,glycan array binding signal (z-score),Gal6S(b1-4)GlcNAc6S,-0.134
same,glycan array binding signal (z-score),GalNAc(a1-3)Gal,-0.13
same,glycan array binding signal (z-score),GalNAc(a1-3)GalNAc,-0.065
same,glycan array binding signal (z-score),GalNAc(b1-3)Gal,-0.12
same,glycan array binding signal (z-score),[2],-0.138
same,glycan array binding signal (z-score),GalNAc(b1-3)GalNAc,-0.143
same,glycan array binding signal (z-score),GalNAc(b1-4)GlcNAc,-0.141
same,glycan array binding signal (z-score),Glc(a1-4)Glc,-0.13
same,glycan array binding signal (z-score),Glc(a1-6)Glc(a1-6)Glc,-0.16
same,glycan array binding signal (z-score),Glc(b1-4)Glc,-0.129
same,glycan array binding signal (z-score),Glc(b1-6)Glc,-0.155
same,glycan array binding signal (z-score),GlcA(b1-3)Gal,-0.135
same,glycan array binding signal (z-score),GlcA(b1-3)GlcNAc,-0.013
same,glycan array binding signal (z-score),GlcA(b1-6)Gal,-0.126
same,glycan array binding signal (z-score),[3],-0.13
same,glycan array binding signal (z-score),[4],-0.164
same,glycan array binding signal (z-score),[5],-0.138
same,glycan array binding signal (z-score),[6],-0.127
same,glycan array binding signal (z-score),GlcNAc(b1-3)Gal,-0.15
same,glycan array binding signal (z-score),[7],-0.131
same,glycan array binding signal (z-score),GlcNAc(b1-3)Gal(b1-4)Glc,-0.147
same,glycan array binding signal (z-score),[8],-0.146
same,glycan array binding signal (z-score),[9],-0.138
same,glycan array binding signal (z-score),GlcNAc(b1-3)GalNAc,-0.136
same,glycan array binding signal (z-score),GlcNAc(b1-3)Man,-0.154
same,glycan array binding signal (z-score),[10],-0.118
same,glycan array binding signal (z-score),[11],-0.142
